In all, about 81,000 sequences were measured (“one-hybrid fitness for binding NBS DNA”: median about -0.1, highest 2% from about 0.36 on). The list shows a part of the results.

To fix the notation:
B1: Caulobacter ParB omega fusion; a variant is named by its letters at X, in order, B8GW30 (parent)
chain: MESVVVGEPGMSEGRRGLGRGLSALLGEVDAAPAQAPGEQLGGSREAPIEILQRNPDQPRRTFREEDLEDLSNSIREKGVLQPILVRPSPDTAGEYQIVAGERAWRAAQRAGLKTVPIMVRELDDLAVLEIGIIENVQRADLNVLEEALSYKVLMEKFERTQENIAQTIGKSXSHVANXMRLLXLPDEVQSYLVSGELTAXHARAIAAAADPVALAKQIIEGGLSVRETEALARKAPNLSAGKSKGGRPPRVKDTDTQALESDLSSVLGLDVSIDHRGSTGTLTITYATLEQLDDLCNRLTRGI

In the assay the parent is B1. Kind of assay: one-hybrid fitness for binding NBS DNA (the Noc-binding site; scaled: cognate 1, non-cognate 0); higher = stronger binding. The conditions noted are these: with NBS DNA site. The method, boiled down:
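Selection: bacterial one-hybrid in E. coli USO, HIS3 reporter with the site 19 bp from the promoter, 48 hours at 37°C on M9-minus-histidine plus 0.1 mM IPTG and 5 mM 3-AT. Libraries were Caulobacter ParB with four randomised specificity codons, sequenced on Illumina before and after selection. Fitness is the rescaled log change in variant-to-wild-type read ratio, anchored to the cognate and non-cognate sites.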
As to TLFT, the “one-hybrid fitness for binding NBS DNA” value is not above 0.2.

As for TRMR, the “one-hybrid fitness for binding NBS DNA” value was 0.3.

For the variant SGYY, the “one-hybrid fitness for binding NBS DNA” value was not above 0.2.

Consider PYKY, for which the “one-hybrid fitness for binding NBS DNA” value is not above 0.2.

In the case of RHRI, the “one-hybrid fitness for binding NBS DNA” value is not above 0.2.

On to RVFC, for which the “one-hybrid fitness for binding NBS DNA” value was not above 0.2.

MHQC: the “one-hybrid fitness for binding NBS DNA” value was not above 0.2.

Take NYFD: the “one-hybrid fitness for binding NBS DNA” value was not above 0.2.

With DWES, the “one-hybrid fitness for binding NBS DNA” value is not above 0.2.

Regarding QQFR, the “one-hybrid fitness for binding NBS DNA” value was 0.491.

YAHF: the “one-hybrid fitness for binding NBS DNA” value was not above 0.2.

For KPSP, the “one-hybrid fitness for binding NBS DNA” value is not above 0.2.

QERD: the “one-hybrid fitness for binding NBS DNA” value was not above 0.2.

Take KEVF: the “one-hybrid fitness for binding NBS DNA” value was not above 0.2.

For LPPA, the “one-hybrid fitness for binding NBS DNA” value is not above 0.2.

As to AIAL, the “one-hybrid fitness for binding NBS DNA” value was not above 0.2.

SPAH: the “one-hybrid fitness for binding NBS DNA” value was not above 0.2.

Take DHYR: the “one-hybrid fitness for binding NBS DNA” value was not above 0.2.

For ANGC, the “one-hybrid fitness for binding NBS DNA” value is not above 0.2.

EAMG: the “one-hybrid fitness for binding NBS DNA” value is not above 0.2.

As to GDHL, the “one-hybrid fitness for binding NBS DNA” value was not above 0.2.

On to FEHR, for which the “one-hybrid fitness for binding NBS DNA” value is not above 0.2.

Consider EHNE, for which the “one-hybrid fitness for binding NBS DNA” value was not above 0.2.

As for LTGW, the “one-hybrid fitness for binding NBS DNA” value is not above 0.2.

Turning to MHDR, the “one-hybrid fitness for binding NBS DNA” value is not above 0.2.

In the case of TYRA, the “one-hybrid fitness for binding NBS DNA” value is not above 0.2.

In the case of AYLS, the “one-hybrid fitness for binding NBS DNA” value is not above 0.2.

As to FRQY, the “one-hybrid fitness for binding NBS DNA” value was not above 0.2.

For SWFS, the “one-hybrid fitness for binding NBS DNA” value is not above 0.2.

For QVSC, the “one-hybrid fitness for binding NBS DNA” value was not above 0.2.

HQSQ: the “one-hybrid fitness for binding NBS DNA” value was not above 0.2.

Regarding QLWD, the “one-hybrid fitness for binding NBS DNA” value was not above 0.2.

With VSDY, the “one-hybrid fitness for binding NBS DNA” value was not above 0.2.

Take YVVN: the “one-hybrid fitness for binding NBS DNA” value is not above 0.2.

Turning to RIVD, the “one-hybrid fitness for binding NBS DNA” value is not above 0.2.

For ILHR, the “one-hybrid fitness for binding NBS DNA” value is not above 0.2.

Regarding FACT, the “one-hybrid fitness for binding NBS DNA” value was not above 0.2.

For MQAE, the “one-hybrid fitness for binding NBS DNA” value is not above 0.2.

As to QQVM, the “one-hybrid fitness for binding NBS DNA” value was not above 0.2.

Consider IFPN, for which the “one-hybrid fitness for binding NBS DNA” value was not above 0.2.

Take CRGF: the “one-hybrid fitness for binding NBS DNA” value was not above 0.2.

For the variant KLEI, the “one-hybrid fitness for binding NBS DNA” value is not above 0.2.

For CMPR, the “one-hybrid fitness for binding NBS DNA” value was not above 0.2.

AENV: the “one-hybrid fitness for binding NBS DNA” value was not above 0.2.

In the case of LSIW, the “one-hybrid fitness for binding NBS DNA” value was not above 0.2.

Turning to LTGC, the “one-hybrid fitness for binding NBS DNA” value is not above 0.2.

On to DIEF, for which the “one-hybrid fitness for binding NBS DNA” value was not above 0.2.

Regarding HTPD, the “one-hybrid fitness for binding NBS DNA” value is not above 0.2.

GNET: the “one-hybrid fitness for binding NBS DNA” value was not above 0.2.

Consider WTYG, for which the “one-hybrid fitness for binding NBS DNA” value was not above 0.2.

DQNE: the “one-hybrid fitness for binding NBS DNA” value is not above 0.2.

VLWT: the “one-hybrid fitness for binding NBS DNA” value was not above 0.2.

Take KYSR: the “one-hybrid fitness for binding NBS DNA” value is not above 0.2.

Take PDPY: the “one-hybrid fitness for binding NBS DNA” value was not above 0.2.

Consider HVAG, for which the “one-hybrid fitness for binding NBS DNA” value was not above 0.2.

In the case of MEIR, the “one-hybrid fitness for binding NBS DNA” value was not above 0.2.

Regarding VFYS, the “one-hybrid fitness for binding NBS DNA” value was not above 0.2.

With TRGF, the “one-hybrid fitness for binding NBS DNA” value was not above 0.2.

For the variant RAPT, the “one-hybrid fitness for binding NBS DNA” value is not above 0.2.

On to DTCG, for which the “one-hybrid fitness for binding NBS DNA” value is not above 0.2.

In the case of WLNS, the “one-hybrid fitness for binding NBS DNA” value was not above 0.2.

As for PRNM, the “one-hybrid fitness for binding NBS DNA” value was not above 0.2.

For the variant IATS, the “one-hybrid fitness for binding NBS DNA” value is not above 0.2.

As to LVYS, the “one-hybrid fitness for binding NBS DNA” value was not above 0.2.

For CMPS, the “one-hybrid fitness for binding NBS DNA” value is not above 0.2.

As for EQST, the “one-hybrid fitness for binding NBS DNA” value was not above 0.2.

On to GYQG, for which the “one-hybrid fitness for binding NBS DNA” value was not above 0.2.

Turning to DAAP, the “one-hybrid fitness for binding NBS DNA” value is not above 0.2.

CTNC: the “one-hybrid fitness for binding NBS DNA” value was not above 0.2.

Turning to LLTN, the “one-hybrid fitness for binding NBS DNA” value was not above 0.2.

With HGRG, the “one-hybrid fitness for binding NBS DNA” value is not above 0.2.

For NNTT, the “one-hybrid fitness for binding NBS DNA” value is not above 0.2.

In the case of SISI, the “one-hybrid fitness for binding NBS DNA” value was not above 0.2.

In the case of RGTL, the “one-hybrid fitness for binding NBS DNA” value was not above 0.2.

As for MRCR, the “one-hybrid fitness for binding NBS DNA” value is not above 0.2.

For the variant DARF, the “one-hybrid fitness for binding NBS DNA” value is not above 0.2.

For PIMD, the “one-hybrid fitness for binding NBS DNA” value was not above 0.2.

With CKSM, the “one-hybrid fitness for binding NBS DNA” value is not above 0.2.

Regarding LRMC, the “one-hybrid fitness for binding NBS DNA” value is not above 0.2.

Regarding KSFS, the “one-hybrid fitness for binding NBS DNA” value is not above 0.2.

As to IYQC, the “one-hybrid fitness for binding NBS DNA” value is not above 0.2.

Consider IMHT, for which the “one-hybrid fitness for binding NBS DNA” value was not above 0.2.

As to DVAT, the “one-hybrid fitness for binding NBS DNA” value is not above 0.2.

For the variant HHTI, the “one-hybrid fitness for binding NBS DNA” value was not above 0.2.

With GELT, the “one-hybrid fitness for binding NBS DNA” value is not above 0.2.

In the case of WTHT, the “one-hybrid fitness for binding NBS DNA” value was not above 0.2.

As to GYDP, the “one-hybrid fitness for binding NBS DNA” value is not above 0.2.

For the variant QTWF, the “one-hybrid fitness for binding NBS DNA” value was not above 0.2.

As to WPSN, the “one-hybrid fitness for binding NBS DNA” value is not above 0.2.

Take QHFG: the “one-hybrid fitness for binding NBS DNA” value was not above 0.2.

In the case of THTC, the “one-hybrid fitness for binding NBS DNA” value was not above 0.2.

On to AFSS, for which the “one-hybrid fitness for binding NBS DNA” value was not above 0.2.

Regarding RQQN, the “one-hybrid fitness for binding NBS DNA” value is not above 0.2.

RKHP: the “one-hybrid fitness for binding NBS DNA” value was not above 0.2.

Consider YSTT, for which the “one-hybrid fitness for binding NBS DNA” value was not above 0.2.

Consider EFTV, for which the “one-hybrid fitness for binding NBS DNA” value is not above 0.2.

With QWRT, the “one-hybrid fitness for binding NBS DNA” value was not above 0.2.

For the variant PTNG, the “one-hybrid fitness for binding NBS DNA” value was not above 0.2.
